PubChem BioAssay (NCI)
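Cells were grown in 96-well plates and exposed to each compound for 48 hours at five concentrations; endpoints were interpolated linearly between bracketing concentrations, or set to the highest concentration if not reached. The concentration for 50% growth inhibition is given as GI50.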 For part of its entries the source gives two or more results. They are shown here; other results are not. An entry can have further records. The tests behind the records often covered other concentration ranges, which the source does not state; some values may only mark the edge of a range.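 TGI is the concentration that stops growth completely.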

Assays:
Assay in all cases: NCI anticancer screen, dose series, 48 h
HL-60(TB) leukemia = system: HL-60(TB) leukemia
NCI-H522 lung = system: NCI-H522 lung
SF-268 CNS = system: SF-268 CNS
OVCAR-5 ovarian = system: OVCAR-5 ovarian
EKVX NSCLC = system: EKVX NSCLC
MCF7 breast = system: MCF7 breast
OVCAR-8 ovarian = system: OVCAR-8 ovarian
SN12C renal = system: SN12C renal
T-47D breast = system: T-47D breast
HCC-2998 colon = system: HCC-2998 colon
HT29 colon = system: HT29 colon
RPMI-8226 leukemia = system: RPMI-8226 leukemia
NCI-H460 lung = system: NCI-H460 lung
COLO 205 colon = system: COLO 205 colon
A549 NSCLC = system: A549 NSCLC
SW-620 colon = system: SW-620 colon
SF-295 CNS = system: SF-295 CNS
RXF 393 renal = system: RXF 393 renal
HOP-62 NSCLC = system: HOP-62 NSCLC
OVCAR-3 ovarian = system: OVCAR-3 ovarian
OVCAR-4 ovarian = system: OVCAR-4 ovarian
UACC-62 melanoma = system: UACC-62 melanoma
NCI-H23 lung = system: NCI-H23 lung
MOLT-4 leukemia = system: MOLT-4 leukemia
HCT-15 colon = system: HCT-15 colon
KM12 colon = system: KM12 colon
TK-10 renal = system: TK-10 renal
SK-OV-3 ovarian = system: SK-OV-3 ovarian
M14 melanoma = system: M14 melanoma
UO-31 renal = system: UO-31 renal
ACHN renal = system: ACHN renal
K-562 leukemia = system: K-562 leukemia
A498 renal = system: A498 renal
NCI-H226 lung = system: NCI-H226 lung
IGROV1 ovarian = system: IGROV1 ovarian
CAKI-1 renal = system: CAKI-1 renal
HOP-92 NSCLC = system: HOP-92 NSCLC
MDA-MB-231 breast = system: MDA-MB-231 breast
SK-MEL-2 melanoma = system: SK-MEL-2 melanoma
BT-549 breast = system: BT-549 breast
SK-MEL-28 melanoma = system: SK-MEL-28 melanoma
HCT-116 colon = system: HCT-116 colon
SNB-75 CNS = system: SNB-75 CNS
LOX IMVI melanoma = system: LOX IMVI melanoma
U251 CNS = system: U251 CNS
UACC-257 melanoma = system: UACC-257 melanoma
CCRF-CEM leukemia = system: CCRF-CEM leukemia
SF-539 CNS = system: SF-539 CNS
MALME-3M melanoma = system: MALME-3M melanoma
SK-MEL-5 melanoma = system: SK-MEL-5 melanoma
NCI/ADR-RES ovarian = system: NCI/ADR-RES ovarian

With `COC1=C2C[C@@H](C)C[C@@H](OC)[C@@H](O)[C@H](C)/C=C(\C)[C@@H](OC(N)=O)[C@H](OC)/C=C\C=C(/C)C(=O)NC(=CC1=O)C2=O` the TGI (HL-60(TB) leukemia) was 35.4 µM, > 50 µM [1 test] and 428 nM [mean of 12 tests] and 78.1 nM [mean of 4 tests], the TGI (NCI-H522 lung) was 44 nM, 2.23 µM, 1.96 µM, 241 nM and the TGI (SF-268 CNS) was 6.68 µM, 8.27 µM [1 test] and 14.6 µM [mean of 12 tests] and 3.57 µM [mean of 5 tests]. For the same compound, the TGI (OVCAR-5 ovarian) was 6.65 µM, 10.9 µM [1 test] and 20.5 µM [mean of 13 tests] and 8.35 µM [mean of 5 tests], the TGI (EKVX NSCLC) was 6.37, 15.4, 23.5, 1.58 µM and the TGI (MCF7 breast) was 4.8 µM, > 50 µM, 20.9 µM, 3.32 µM. The TGI (OVCAR-8 ovarian) was 10.9, 49.6, 9.01, 3.28 µM, the TGI (SN12C renal) was 325 nM, < 5 nM, 12.4 µM, 1.24 µM and the GI50 (T-47D breast) was 5.77 nM, 6.22 µM [1 test] and 21.4 nM [mean of 10 tests]. The TGI (T-47D breast) was 37.5 µM [1 test] and 1.97 µM [mean of 10 tests], the GI50 (HCC-2998 colon) was 9.69 nM [1 test] and 494 nM [mean of 13 tests] and 104 nM [mean of 3 tests] and the TGI (HCC-2998 colon) was 10.4 µM [mean of 13 tests] and 842 nM [mean of 3 tests]. The TGI (HT29 colon) was 37.5 µM [1 test] and 4.83 µM [mean of 13 tests] and 1.16 µM [mean of 5 tests], the TGI (RPMI-8226 leukemia) was 31.6 µM, 89.3 nM, 11 µM, 2.46 µM and the TGI (NCI-H460 lung) was 4.23 µM, > 50 µM [1 test] and 18.9 µM [mean of 12 tests] and 1.83 µM [mean of 5 tests]. For the same compound, the TGI (COLO 205 colon) was 37.5 µM, 522 nM, 1.35 µM, the TGI (A549 NSCLC) was 9.93 µM, > 50 µM [1 test] and 18.6 µM [mean of 11 tests] and 4.41 µM [mean of 5 tests] and the TGI (SW-620 colon) was 14, 12.3, 9, 1.99 µM. The TGI (SF-295 CNS) was 14.1 µM, 16.1 µM [1 test] and 24 µM [mean of 11 tests] and 4.46 µM [mean of 4 tests], the TGI (RXF 393 renal) was 5.93 µM and 457 nM and the TGI (HOP-62 NSCLC) was 7.33 µM [1 test] and 18.6 µM [mean of 13 tests] and 1.64 µM [mean of 4 tests]. The TGI (OVCAR-3 ovarian) was 4.08 µM, 5.28 µM [1 test] and 2.44 µM [mean of 5 tests] and 8.55 µM [mean of 8 tests], the GI50 (OVCAR-4 ovarian) was 6.03 µM [1 test] and 1.7 µM [mean of 13 tests] and 128 nM [mean of 2 tests] and the TGI (OVCAR-4 ovarian) was 14.2 µM [1 test] and 7.4 µM [mean of 13 tests] and 1.09 µM [mean of 2 tests]. The TGI (UACC-62 melanoma) was 2.65 µM, 35.6 nM, 7.65 µM, 3.11 µM, the TGI (NCI-H23 lung) was 29.7 nM, < 5 nM, 9.57 µM, 797 nM and the TGI (MOLT-4 leukemia) was 56.3 nM, > 50 µM, 4.95 µM, 279 nM. For the same compound, the TGI (HCT-15 colon) was 5.83 µM, 260 nM [1 test] and 13 µM [mean of 13 tests] and 3.49 µM [mean of 5 tests], the TGI (KM12 colon) was 8.19 µM, 5.24 µM [1 test] and 3.52 µM [mean of 12 tests] and 1.89 µM [mean of 5 tests] and the TGI (TK-10 renal) was 5.08 µM, < 5 nM [1 test] and 14.4 µM [mean of 13 tests]. For the same compound, the GI50 (SK-OV-3 ovarian) was 6.89 µM [1 test] and 372 nM [mean of 10 tests], the TGI (M14 melanoma) was 3.35 µM, < 5 nM [1 test] and 13.7 µM [mean of 13 tests] and the TGI (UO-31 renal) was 5.83 µM, > 50 µM [1 test] and 7.69 µM [mean of 13 tests] and 4.14 µM [mean of 5 tests]. For the same compound, the GI50 (ACHN renal) was 1.38 nM, 45.4 nM [1 test] and 98.9 nM [mean of 13 tests], the TGI (ACHN renal) was 47.7 nM, 5.93 µM [1 test] and 15.1 µM [mean of 13 tests] and the TGI (K-562 leukemia) was 37.5 µM [1 test] and 20.7 µM [mean of 12 tests] and 2.21 µM [mean of 4 tests]. For the same compound, the GI50 (A498 renal) was 256 nM [mean of 4 tests] and 2.91 µM [mean of 8 tests], the TGI (NCI-H226 lung) was 12.6 µM, 44.7 nM, 18.5 µM, 4.03 µM and the TGI (IGROV1 ovarian) was > 50 µM [1 test] and 7.73 µM [mean of 11 tests] and 2.12 µM [mean of 5 tests]. The TGI (CAKI-1 renal) was 8.32 µM, 3.1 µM [1 test] and 16.2 µM [mean of 11 tests] and 4.3 µM [mean of 5 tests], the TGI (HOP-92 NSCLC) was 17.4 µM, 6.92 µM [1 test] and 749 nM [mean of 10 tests] and 782 nM [mean of 5 tests] and the TGI (MDA-MB-231 breast) was 356 nM, < 5 nM [1 test] and 3.33 µM [mean of 10 tests]. For the same compound, the TGI (SK-MEL-2 melanoma) was 76.8 nM, > 50 µM [1 test] and 9.69 µM [mean of 10 tests] and 2 µM [mean of 5 tests], the GI50 (BT-549 breast) was 47.4 nM [1 test] and 960 nM [mean of 10 tests] and the TGI (BT-549 breast) was 718 nM [1 test] and 18.9 µM [mean of 10 tests]. The TGI (SK-MEL-28 melanoma) was 35.8 nM, 37.5 µM [1 test] and 3.5 µM [mean of 5 tests] and 15.3 µM [mean of 9 tests].

For `C=Cc1cc(OC)c2c(c1)c(=O)oc1c2cc(OC)c2c(O)ccc(C3OC(C)C(O)C(C)(O)C3O)c21` (stereo unspecified), the GI50 (NCI-H522 lung) was 0.336 nM [1 test] and 48.5 nM [mean of 3 tests], the TGI (NCI-H522 lung) was 2.2 nM [1 test] and 62.8 nM [mean of 3 tests] and the TGI (SF-268 CNS) was 1.48 nM and 97.6 nM. The TGI (OVCAR-5 ovarian) was 1.44 nM and 250 nM, the TGI (EKVX NSCLC) was 4.46 nM and 145 nM and the TGI (OVCAR-8 ovarian) was 7.46 nM and 108 nM. The TGI (SN12C renal) was 6.15 nM and 128 nM, the TGI (HCT-116 colon) was 7.56 nM and 293 nM and the TGI (HCC-2998 colon) was 7.16 nM and 129 nM. The TGI (RPMI-8226 leukemia) was 3.18 nM and 67.5 nM, the TGI (SNB-75 CNS) was 2.04 nM and 52.2 nM and the TGI (LOX IMVI melanoma) was 1.72 nM and 233 nM. The GI50 (COLO 205 colon) was 1.82 nM [1 test] and 56.9 nM [mean of 3 tests], the TGI (SW-620 colon) was 8.39 nM and 764 nM and the TGI (RXF 393 renal) was 0.678 nM and 24.9 nM. The TGI (U251 CNS) was 7.77 nM and 293 nM, the GI50 (UACC-257 melanoma) was 2.04 nM [1 test] and 30.4 nM [mean of 3 tests] and the TGI (UACC-257 melanoma) was 7.14 nM [1 test] and 73.1 nM [mean of 3 tests]. The TGI (CCRF-CEM leukemia) was 0.597 nM and 276 nM, the TGI (HOP-62 NSCLC) was 0.59 nM and 38 nM and the TGI (SF-539 CNS) was 0.433 nM and 63.7 nM. The TGI (OVCAR-3 ovarian) was 6.46 nM and 150 nM, the TGI (OVCAR-4 ovarian) was 8.2 nM and 232 nM and the TGI (UACC-62 melanoma) was 2.96 nM and 61.7 nM. For the same compound, the TGI (NCI-H23 lung) was 0.758 nM and 85.9 nM, the TGI (MALME-3M melanoma) was 3.46 nM and 157 nM and the TGI (MOLT-4 leukemia) was 1.21 nM and 225 nM. The GI50 (KM12 colon) was 0.618 nM [1 test] and 39.1 nM [mean of 3 tests], the TGI (KM12 colon) was 2.89 nM [1 test] and 493 nM [mean of 3 tests] and the TGI (SK-OV-3 ovarian) was 9.72 nM and 388 nM. For the same compound, the TGI (UO-31 renal) was 5.68 nM and 119 nM, the GI50 (SK-MEL-5 melanoma) was 1.24 nM [1 test] and 44.8 nM [mean of 5 tests] and the TGI (SK-MEL-5 melanoma) was 4.1 nM [1 test] and 69.8 nM [mean of 5 tests]. For the same compound, the TGI (A498 renal) was 3.79 nM and 103 nM, the GI50 (NCI-H226 lung) was 1.58 nM [1 test] and 277 nM [mean of 3 tests] and the TGI (NCI-H226 lung) was 5.19 nM [1 test] and 435 nM [mean of 3 tests]. For the same compound, the TGI (SK-MEL-2 melanoma) was 2.65 nM and 64.9 nM, the TGI (NCI/ADR-RES ovarian) was 3.24 nM and 110 nM and the GI50 (SK-MEL-28 melanoma) was 1.2 nM [1 test] and 66.5 nM [mean of 2 tests]. The TGI (SK-MEL-28 melanoma) was 2.76 nM [1 test] and 195 nM [mean of 2 tests].
